Experimental data reported in ChEMBL document CHEMBL1201862, “PubChem BioAssay data set” (2004).

These compounds were tested on NCI-H322M (assay: DTP human tumour cell line panel, 48 h).
In the case of `COc1cc2cc(OC(C)=O)c3cc4c(cc3c2c(OC)c1OC)OCO4`, the GI50 is reported as inactive: > 100 µM. In the case of `Cn1ncc2c(Nc3cccc(Cl)c3)nc(Nc3cccc(Cl)c3)nc21`, the GI50 is reported as inactive: 12.9 µM. `CN1C2CCC1CN(CCOC(c1ccc(F)cc1)c1ccc(F)cc1)C2` was tested, and the GI50 was inactive: 46.6 µM. In the case of `ON(CCc1ccccn1)Cc1ccccc1`, the GI50 is reported as inactive: > 100 µM. For `COc1ccc2c(n1)Sc1nc3ccccc3nc1N2`, the GI50 was inactive: 48.6 µM. `CN(C)CCSCCO` was tested, and the GI50 was inactive: > 100 µM. With `O=C(Cc1nc2ncccc2[nH]c1=O)c1c[nH]c2ccccc12` the GI50 was inactive: 21.2 µM. In the case of `CC(=O)/C(=C/NC(=S)N/N=C1\C(=O)Nc2ccccc21)C(=O)Nc1ccccc1C`, the GI50 is reported as inactive: > 100 µM. `Cc1cc(C)nc(NS(=O)(=O)c2ccc(Nc3c4ccccc4nc4ccc(C(=O)Nc5ccc(S(=O)(=O)N=C(N)N)cc5)cc34)cc2)n1` was tested, and the GI50 was inactive: > 100 µM. In the case of `O=C(Nc1ccc([N+](=O)[O-])cc1)C(=O)C(C(=O)c1ccccc1F)C1OC(=O)c2ccccc21` (stereo not given), the GI50 is reported as inactive: 30.1 µM. In the case of `c1ccc2sc(C3(N4CCCCC4)CCCC3)cc2c1`, the GI50 is reported as inactive: 11.1 µM. `CCOC(=O)/C(C#N)=N\Nc1ccc(-n2c(C)nc3ccc(Br)cc3c2=O)cc1` was tested, and the GI50 was inactive: 95.9 µM. With `CC1=C2CC(C)(C)CC(=O)C2(C)CCC1=O` (stereo not given) the GI50 was inactive: > 100 µM. In the case of `COc1cc(-c2c(C#N)c(N)c(C#N)c3c2COc2ccccc2-3)cc(OC)c1OC`, the GI50 is reported as inactive: > 26.5 µM. `O=C1C(Cl)C(c2cc3cc(Br)ccc3nc2Cl)N1c1ccc(Cl)cc1` (stereo not given) was tested, and the GI50 was inactive: 5.05 µM. In the case of `O=[As](O)(O)c1ccc(/N=N/c2ccc(O)cc2)cc1`, the GI50 is reported as inactive: > 100 µM. In the case of `C=CCNC1=C2C[C@@H](C)C[C@@H](OC)[C@H](OC(=O)CCCCN)[C@H](C)/C=C(\C)[C@@H](OC(N)=O)[C@H](OC)/C=C\C=C(/C)C(=O)NC(=CC1=O)C2=O`, the GI50 is reported as inactive: 12.6 µM. In the case of `C#CCCCCC#Cc1ccccc1C(=O)C=[N+]=[N-]`, the GI50 is reported as inactive: > 100 µM. With `Nc1ccc(Oc2ccc(C3(c4ccc(Oc5ccc(N)c(O)c5)cc4)C4CC5CC(C4)CC3C5)cc2)cc1O` the GI50 was inactive: 1.15 µM. In the case of `C1=C(c2ccccc2)CN(c2ccccc2)OC1`, the GI50 is reported as inactive: > 100 µM. For `O=C(O)C#Cc1ccc([N+](=O)[O-])cc1`, the GI50 was inactive: > 100 µM. With `O=C(Nc1ccc(C(F)(F)F)cc1[N+](=O)[O-])c1cccnc1` the GI50 was inactive: 6.05 µM. In the case of `CON(C)C(=O)CCCO`, the GI50 is reported as inactive: > 100 µM. With `N#CC(C#N)=C1C(C#N)=C(N)NC12OCCO2` the GI50 was inactive: > 100 µM. `COC(=O)C(NC(=O)c1ccccc1)C(c1c(O)cc(O)cc1O)P(=O)(OC)OC` (stereo not given) was tested, and the GI50 was inactive: > 100 µM. In the case of `O=C(CC(C(=O)c1cccs1)c1ccsc1)c1ccccc1` (stereo not given), the GI50 is reported as inactive: > 100 µM. For `O=c1cc(NCC2CCCCC2)[nH]c(=O)[nH]1`, the GI50 was inactive: > 100 µM. `Cn1c(=O)c2c(nc(NCCCCl)n2CC(=O)O)n(C)c1=O` was tested, and the GI50 was inactive: > 100 µM. For `C/C(=C/C(=O)Nc1ccccc1)Nc1onc(C)c1C`, the GI50 was inactive: > 100 µM. For `CC12CC(c3ccccc3O1)C(C(=O)Nc1ccc(F)cc1)C(=O)N2` (stereo not given), the GI50 was inactive: > 100 µM. With `COC(=O)c1ccc(C(=O)NC(Cc2ccc(Oc3cc(CC(NC(=O)c4ccccc4C(=O)OC)C(=O)OC)ccc3OC)cc2)C(=O)OC)cc1` (stereo not given) the GI50 was inactive: > 100 µM. For `Cc1cc(C)c(S(=O)(=O)N2CCN(S(=O)(=O)c3c(C)cc(C)cc3C)OCCCCCO2)c(C)c1`, the GI50 was inactive: > 100 µM. With `O=C(/C=C/c1ccc([N+](=O)[O-])cc1)c1ccc(NCc2nc3ccccc3[nH]2)cc1` the GI50 was inactive: 7.08 µM. With `CC1(C)OC2[C@@H](CO[C@@]3([C@H]4OC(C)(C)O[C@@H]4CO)OC(C)(C)O[C@@H]23)O1` (stereo not given in full) the GI50 was inactive: > 100 µM. With `N#CC1=C(N)OC(c2cccc([N+](=O)[O-])c2)C1(C#N)C#N` (stereo not given) the GI50 was inactive: 16.2 µM. `COc1cccc(-n2nnc3c(N)nc(N)nc32)c1` was tested, and the GI50 was inactive: > 100 µM. In the case of `N#CC(C#N)=C/C=C/c1c(Cl)cccc1Cl`, the GI50 is reported as inactive: 2.48 µM. With `CCCCCCCCOCC(O)COC` (stereo not given) the GI50 was inactive: > 100 µM. In the case of `Cc1cc(C)[n+](CCOc2ccc(/C(=C(/Cl)c3ccccc3)c3ccccc3)cc2)c(C)c1.[O-][Cl+3]([O-])([O-])[O-]`, the GI50 is reported as inactive: 3.13 µM. With `CSc1nc(C)cc(Nc2ccc(O)c(CN3CCOCC3)c2)n1` the GI50 was inactive: > 100 µM. For `CCO/N=[N+](\[O-])N(CC)CC`, the GI50 was inactive: > 100 µM. `O=C(/C=C\c1ccc(Cl)c(Cl)c1)c1ccc(Cl)cc1Cl` was tested, and the GI50 was inactive: 18.3 µM. In the case of `O=C1C(=O)c2c(oc(=O)c3ccccc23)-c2ccccc21`, the GI50 is reported as inactive: > 25 µM. `Oc1ccc(Cl)cc1-c1cc(-c2ccccc2)nc(S)n1` was tested, and the GI50 was inactive: > 100 µM. In the case of `COC1(C(C)(C)C)C=C(C(C)(C)C)P(=O)(O)O1` (stereo not given), the GI50 is reported as inactive: > 100 µM. For `O=C1CCC(=O)C(C(=O)CCC(=O)Nc2ccc(Cl)cc2)C1` (stereo not given), the GI50 was inactive: > 100 µM. `Cn1c(=O)cc(/N=N\c2ccc(Cl)c(Cl)c2)[nH]c1=O` was tested, and the GI50 was inactive: > 100 µM. For `CCCCOC(=O)CN1C(=O)c2ccccc2C1=O`, the GI50 was inactive: > 100 µM. `COC(=O)C(Cc1ccccc1)NP(=O)(O)OCC1OC(n2cc(Br)c(=O)[nH]c2=O)CC1O` (stereo not given) was tested, and the GI50 was inactive: > 100 µM. With `CC1C/C(=C\c2ccc(OC(=O)C(C)(C)C)cc2)C(=O)/C(=C/c2ccc(OC(=O)C(C)(C)C)cc2)C1` (stereo not given) the GI50 was inactive: > 100 µM. For `CC(C)c1cccc(C(C)C)c1NC(=O)C(=O)C(C(=O)c1ccccc1-c1ccccc1)C1OC(=O)c2ccccc21` (stereo not given), the GI50 was inactive: 14 µM. With `CC(=O)SCCC(NC(=S)Nc1ccccc1)P(=O)(Oc1ccccc1)Oc1ccccc1` (stereo not given) the GI50 was inactive: 35.1 µM. `CCN1C(C)=NC2C(=O)c3ccccc3C(=O)C21` (stereo not given) was tested, and the GI50 was inactive: 87.5 µM. For `COc1cc(OC)cc(C(=O)CC(=O)c2cc(OC)cc(OC)c2)c1`, the GI50 was inactive: > 100 µM. For `CC1(C)N=c2c(ncn2Cc2ccccc2)=C(C(N)=O)N1`, the GI50 was inactive: > 100 µM. In the case of `CC(CC(=O)O)C(C(=O)O)C(=O)O` (stereo not given), the GI50 is reported as inactive: > 100 µM. For `O=C(NC12CC3CC(CC(F)(C3)C1)C2)c1ccccc1`, the GI50 was inactive: > 100 µM. In the case of `C[P+](C)(C)c1ccccc1`, the GI50 is reported as inactive: > 100 µM. In the case of `COC(=O)CCSC(=O)Nc1ccccc1Cl`, the GI50 is reported as inactive: > 100 µM. In the case of `CNC(=O)c1nc[nH]c1/N=N/N(C)N`, the GI50 is reported as inactive: > 100 µM. With `CN1CCC(=O)/C(=C/c2ccccc2)C1` the GI50 was inactive: 17.1 µM. In the case of `Cc1ccc(/C=C2\Cc3cccc(C)c3C2=O)c(C(=O)O)c1`, the GI50 is reported as inactive: > 100 µM. `Cc1cc2c(cc1C)OC(=O)CC2` was tested, and the GI50 was inactive: > 100 µM. For `O=c1[nH]nc(Cc2ccccc2)n1/N=C/c1ccco1`, the GI50 was inactive: > 100 µM. With `O=C(CSCC(=O)N/N=C/c1cccc(C(F)(F)F)c1)N/N=C/c1cccc(C(F)(F)F)c1` the GI50 was inactive: > 100 µM. With `CCCCNCCCNCCCNC(=O)c1csc(-c2csc(CCNC(=O)C(NC(=O)C(C)C(O)C(C)NC(=O)C(NC(=O)c3nc(C(CC(N)=O)NCC(N)C(N)=O)nc(N)c3C)C(OC3OC(CO)C(O)C(O)C3OC3OC(CO)C(O)C(OC(N)=O)C3O)c3c[nH]cn3)C(C)O)n2)n1` (stereo not given) the GI50 was inactive: > 50 µM. With `C/C(=C\COc1ccc2ccc(=O)oc2c1)CCC(=O)C(C)(C)O` the GI50 was inactive: 45.7 µM. In the case of `CC(C)(CN1CCCCC1)C(=O)/C=C/c1ccccc1`, the GI50 is reported as inactive: 8.67 µM. With `O=C(CSCC(=O)N/N=C\c1cccc(Br)c1)N/N=C\c1cccc(Br)c1` the GI50 was inactive: 11.1 µM. In the case of `COc1cccc(/N=N/C(=N/NC(=O)c2cc(Cl)ccc2O)c2ccc(N(CCC#N)CCC#N)cc2C)c1`, the GI50 is reported as inactive: 54.7 µM. In the case of `O=c1[nH]c(=O)n(C2CC(O)C(CO)O2)cc1OC/C=C/Cc1ccccc1` (stereo not given), the GI50 is reported as inactive: > 100 µM. With `CC1C(OC2O[C@@H]3O[C@@]4(C)CC[C@H]5[C@H](C)CC[C@@H](C2C)[C@@]35O4)O[C@@H]2O[C@@]3(C)CC[C@H]4[C@H](C)CC[C@@H]1[C@@]24O3` (stereo not given in full) the GI50 was inactive: > 50 µM. In the case of `CC(=O)O[C@H]1C(=O)[C@@]2(C)[C@H]([C@H](OC(=O)c3ccccc3)[C@]3(O)C[C@H](OC(=O)[C@H](O)[C@@H](NC(=O)c4ccccc4)c4cccc(N(C)C)c4)C(C)=C1C3(C)C)[C@]1(OC(C)=O)CO[C@@H]1C[C@@H]2O`, the GI50 is reported as inactive: 2.36 µM. For `O=C(O)CC(Sc1ccccc1)c1ccccc1` (stereo not given), the GI50 was inactive: > 100 µM. `N#CC(=N)c1ncn(-c2ccc(N)cc2)c1N` was tested, and the GI50 was inactive: 19.9 µM. With `CC(=O)C1=CCC2c3[nH]c4ccccc4c3CCN2C1` (stereo not given) the GI50 was inactive: > 100 µM. In the case of `CC1(C)CC[C@]2(C(=O)O)CC[C@]3(C)C(=CC[C@@H]4[C@@]5(C)C[C@H](O)[C@H](O)[C@@](C)(CO)C5=CC[C@]43C)[C@@H]2C1`, the GI50 is reported as inactive: 49.7 µM. In the case of `CC(=N/NC(=S)N(C)C)/C(=N\NC(=S)N(C)C)c1ccccc1`, the GI50 is reported as inactive: 2.21 µM. For `C[C@H](NC(=O)CNC(=O)CCCCCC(=O)NCC(=O)N[C@@H](C)C(=O)OCc1ccccc1)C(=O)OCc1ccccc1`, the GI50 was inactive: > 100 µM. `NC1C/C(=N\O)c2c(Cl)sc(Cl)c21` (stereo not given) was tested, and the GI50 was inactive: 83.9 µM. `CCCCCCCC(CC(=O)NC(CO)C(=O)NC(CO)CC(C)C)OC(=O)CC(CCCCCCC)OC(=O)CC(CCCCCCC)OC1OC(C)C(O)C(OC2OC(C)C(OC(C)=O)C(O)C2O)C1O` (stereo not given) was tested, and the GI50 was inactive: 10.9 µM. `NCC(=O)N[C@H]1c2ccsc2/C(=N/O)[C@H]1O` was tested, and the GI50 was inactive: > 100 µM. For `CN1c2ccccc2N(C(=O)c2ccc(Cl)cc2)C(CC(=O)O)c2cccn21` (stereo not given), the GI50 was inactive: > 100 µM. In the case of `COc1cc(C2S/C(=C/c3ccccc3)C(=O)N2c2cc(Cl)ccc2Cl)cc(OC)c1OC` (stereo not given), the GI50 is reported as inactive: 56 µM. In the case of `C[C@H](Nc1nc(N)c(N=O)c(=O)n1C)C(=O)O`, the GI50 is reported as inactive: > 10 µM. With `NC(CCC(=O)NC(CSSCCCCS(=O)O)C(=O)NCC(=O)O)C(=O)O` (stereo not given) the GI50 was inactive: > 100 µM. `COc1cc(C2c3cc4c(cc3[C@@H](N(C)c3ccc(N(C)C)cc3)C3COC(=O)C23)OCO4)cc(OC)c1O` (stereo not given in full) was tested, and the GI50 was inactive: 3.74 µM. For `COS(=O)CCOC(=O)c1ccccc1SSc1ccccc1C(=O)OCCS(=O)OC` (stereo not given), the GI50 was inactive: > 100 µM. With `CC(O)c1cc2c(s1)C(=O)c1c(C(C)O)csc1C2=O` (stereo not given) the GI50 was active: 0.153 µM. With `CCC[S+]([O-])c1nc(COC(=O)NC)c(COC(=O)NC)n1C` (stereo not given) the GI50 was inactive: > 100 µM.

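Following 48 hours of exposure in 96-well plates, responses at five concentrations were used to interpolate endpoints linearly. The concentration for 50% growth inhibition is given as GI50.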 Active and inactive are the calls of the source. Rule as the data show it: active = GI50 up to about 1.1 µM and inactive = higher.
